The list shows a part of the results.
Experiments:
Assay in all cases: glycan array binding signal (z-score within array); higher = stronger binding
Conditions in all cases: glycan notation: IUPAC condensed, linker removed; mutation: R343A
GlcNAc(b1-3)Gal(b1-4)Glc = target: GlcNAc(b1-3)Gal(b1-4)Glc
Outline: (§1)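 The binding signal is a Z-score computed within each array and averaged over linkers. Arrays of the same protein sequence at different concentrations or buffers were also averaged together. Data originate from 3228 arrays in the Consortium for Functional Glycomics database, kept only where the protein sequence was available.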

[1] = target: GlcNAc(b1-3)Gal(b1-4)GlcNAc
Outline: as §1

[2] = target: GlcNAc(b1-3)Gal(b1-4)GlcNAc(b1-3)Gal(b1-4)GlcNAc
Outline: as §1

GlcNAc(b1-3)GalNAc = target: GlcNAc(b1-3)GalNAc
Outline: as §1

GlcNAc(b1-3)Man = target: GlcNAc(b1-3)Man
Outline: as §1

[3] = target: GlcNAc(b1-3)[GlcNAc(b1-4)][GlcNAc(b1-6)]GlcNAc
Outline: as §1

[4] = target: GlcNAc(b1-3)[GlcNAc(b1-6)]Gal(b1-4)GlcNAc
Outline: as §1

[5] = target: GlcNAc(b1-3)[GlcNAc(b1-6)]GalNAc
Outline: as §1

[6] = target: GlcNAc(b1-4)Gal(b1-4)GlcNAc
Outline: as §1

GlcNAc(b1-4)GlcNAc = target: GlcNAc(b1-4)GlcNAc
Outline: as §1

[7] = target: GlcNAc(b1-4)GlcNAc(b1-4)GlcNAc
Outline: as §1

[8] = target: GlcNAc(b1-4)GlcNAc(b1-4)GlcNAc(b1-4)GlcNAc(b1-4)GlcNAc
Outline: as §1

[9] = target: GlcNAc(b1-4)GlcNAc(b1-4)GlcNAc(b1-4)GlcNAc(b1-4)GlcNAc(b1-4)GlcNAc
Outline: as §1

[10] = target: GlcNAc(b1-4)[GlcNAc(b1-6)]GalNAc
Outline: as §1

[11] = target: GlcNAc(b1-6)Gal(b1-4)GlcNAc
Outline: as §1

GlcNAc(b1-6)GalNAc = target: GlcNAc(b1-6)GalNAc
Outline: as §1

GlcNAc3Prop(b1-4)GlcNAc = target: GlcNAc3Prop(b1-4)GlcNAc
Outline: as §1

Kdn(a2-3)Gal(b1-3)GlcNAc = target: Kdn(a2-3)Gal(b1-3)GlcNAc
Outline: as §1

Kdn(a2-3)Gal(b1-4)GlcNAc = target: Kdn(a2-3)Gal(b1-4)GlcNAc
Outline: as §1

[12] = target: Man(a1-2)Man(a1-2)Man(a1-3)Man
Outline: as §1

[13] = target: Man(a1-2)Man(a1-2)Man(a1-6)[Man(a1-3)]Man
Outline: as §1

Man(a1-2)Man(a1-3)Man = target: Man(a1-2)Man(a1-3)Man
Outline: as §1

[14] = target: Man(a1-2)Man(a1-3)[Man(a1-2)Man(a1-6)]Man
Outline: as §1

[15] = target: Man(a1-2)Man(a1-3)[Man(a1-2)Man(a1-6)]Man(a1-6)[Man(a1-2)Man(a1-2)Man(a1-3)]Man
Outline: as §1

[16] = target: Man(a1-2)Man(a1-3)[Man(a1-2)Man(a1-6)]Man(a1-6)[Man(a1-2)Man(a1-2)Man(a1-3)]Man(b1-4)GlcNAc(b1-4)GlcNAc
Outline: as §1

[17] = target: Man(a1-2)Man(a1-3)[Man(a1-6)]Man(a1-6)[Man(a1-2)Man(a1-3)]Man(b1-4)GlcNAc(b1-4)GlcNAc
Outline: as §1

[18] = target: Man(a1-2)Man(a1-6)[Man(a1-3)]Man(a1-6)[Man(a1-2)Man(a1-2)Man(a1-3)]Man
Outline: as §1

[19] = target: Man(a1-2)Man(a1-6)[Man(a1-3)]Man(a1-6)[Man(a1-2)Man(a1-2)Man(a1-3)]Man(b1-4)GlcNAc(b1-4)GlcNAc
Outline: as §1

Man(a1-3)[Man(a1-6)]Man = target: Man(a1-3)[Man(a1-6)]Man
Outline: as §1

[20] = target: Man(a1-3)[Man(a1-6)]Man(a1-6)[Man(a1-2)Man(a1-3)]Man(b1-4)GlcNAc(b1-4)GlcNAc
Outline: as §1

[21] = target: Man(a1-3)[Man(a1-6)]Man(a1-6)[Man(a1-3)]Man
Outline: as §1

[22] = target: Man(a1-3)[Man(a1-6)]Man(a1-6)[Man(a1-3)]Man(b1-4)GlcNAc(b1-4)GlcNAc
Outline: as §1

[23] = target: Man(a1-3)[Man(a1-6)]Man(b1-4)GlcNAc(b1-4)GlcNAc
Outline: as §1

Man(a1-6)Man = target: Man(a1-6)Man
Outline: as §1

Man(b1-4)GlcNAc = target: Man(b1-4)GlcNAc
Outline: as §1

Neu5Ac(a2-3)Gal = target: Neu5Ac(a2-3)Gal
Outline: as §1

[24] = target: Neu5Ac(a2-3)Gal(b1-3)GalNAc
Outline: as §1

B1: Surfactant Protein D (Human); Neck + Carbohydrate Recognition Domain (NCRD) (Homo sapiens) (protein)
chain: MLLFLLSALVLLTQPLGYLEAEMKTYSHRTMPSACTLVMCSSVESGLPGRDRDGREGPRGEKGDPGLPGAAGQAGMPGQAGPVGPKGDNGSVGEPGPKGDTGPSGPPGPPGVPGPAGREGALGKQGNIGPQGKPGPKGEAGPKGEVGAPGMQGSAGARGLAGPKGERGVPGERGVPGNTGAAGSAGAMGPQGSPGARGPPGLKGDKGIPGDKGAKGESGLPDVASLRQQVEALQGQVQHLQAAFSQYKKVELFPNGQSVGEKIFKTAQFVKPFTEAQLLCTQAGGQLASPRSAAENAALQQLVVAKNEAAFLSMTDSKTEGKFTYPTGESLVYSNWAPGEPNDDGGSEDCVEIFTNGKWNDAACGEKRLVVCEF
glycan array binding signal (z-score) (GlcNAc(b1-3)Gal(b1-4)Glc): -0.383
glycan array binding signal (z-score) [1]: -0.343
glycan array binding signal (z-score) [2]: -0.173
glycan array binding signal (z-score) (GlcNAc(b1-3)GalNAc): -0.28
glycan array binding signal (z-score) (GlcNAc(b1-3)Man): -0.274
glycan array binding signal (z-score) [3]: -0.284
glycan array binding signal (z-score) [4]: -0.3
glycan array binding signal (z-score) [5]: -0.267
glycan array binding signal (z-score) [6]: -0.318
glycan array binding signal (z-score) (GlcNAc(b1-4)GlcNAc): -0.281
glycan array binding signal (z-score) [7]: 0.571
glycan array binding signal (z-score) [8]: -0.228
glycan array binding signal (z-score) [9]: -0.187
glycan array binding signal (z-score) [10]: -0.006
glycan array binding signal (z-score) [11]: 0.135
glycan array binding signal (z-score) (GlcNAc(b1-6)GalNAc): -0.328
glycan array binding signal (z-score) (GlcNAc3Prop(b1-4)GlcNAc): -0.238
glycan array binding signal (z-score) (Kdn(a2-3)Gal(b1-3)GlcNAc): -0.253
glycan array binding signal (z-score) (Kdn(a2-3)Gal(b1-4)GlcNAc): -0.194
glycan array binding signal (z-score) [12]: 1.75
glycan array binding signal (z-score) [13]: -0.063
glycan array binding signal (z-score) (Man(a1-2)Man(a1-3)Man): 2.7
glycan array binding signal (z-score) [14]: 9.14
glycan array binding signal (z-score) [15]: 6.17
glycan array binding signal (z-score) [16]: -0.269
glycan array binding signal (z-score) [17]: 9.15
glycan array binding signal (z-score) [18]: 2.79
glycan array binding signal (z-score) [19]: 1.43
glycan array binding signal (z-score) (Man(a1-3)[Man(a1-6)]Man): -0.326
glycan array binding signal (z-score) [20]: 6.5
glycan array binding signal (z-score) [21]: -0.352
glycan array binding signal (z-score) [22]: -0.303
glycan array binding signal (z-score) [23]: -0.219
glycan array binding signal (z-score) (Man(a1-6)Man): -0.269
glycan array binding signal (z-score) (Man(b1-4)GlcNAc): -0.233
glycan array binding signal (z-score) (Neu5Ac(a2-3)Gal): -0.136
glycan array binding signal (z-score) [24]: -0.311
